Source: PubChem BioAssay AID624170 (National Center for Advancing Translational Sciences (NCATS), 2012)
Among all 410,000 compounds or so, about 850 (0.21%) were called active. Inconclusive means that the source gave no clear call. Such entries were picked first, then a sample of the others. Calls come from the whole dose curve; as a rule, active = well fitted inhibition curve with a large enough effect; inconclusive = small, poorly fitted or top-dose-only effect, or another doubt; inactive = no such curve, though single readings can be large or run the other way. No potency is given beside an inconclusive call; the fits are too rough. More than one record can exist for a structure, and the calls need not agree.

These compounds were tested against Glutaminase kidney isoform, mitochondrial (Homo sapiens) (UniProt O94925) (assay: qHTS for Inhibitors of Glutaminase (GLS)). Conditions: GLS enzymatic activity, qHTS titration; series mostly up to 45.5 µM; activity change, negative = inhibition: at the top concentration.
Outline: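 Coupled fluorescence readout: glutamate oxidase/HRP/Amplex Red detect glutamate formed by hKGA from L-glutamine (1 mM solution added). Buffer 45 mM KH2PO4 pH 8.2, 0.02% Tween-20; reads at t0 and 30 min RT.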
% is set by controls: 0 for no effect and ±100 for the full control effect; potency is the fitted concentration of half-maximal effect; tags give direction and shape of the fitted curve.

Sequence of UniProt O94925 (O94925 whole entry, looked up, canonical isoform): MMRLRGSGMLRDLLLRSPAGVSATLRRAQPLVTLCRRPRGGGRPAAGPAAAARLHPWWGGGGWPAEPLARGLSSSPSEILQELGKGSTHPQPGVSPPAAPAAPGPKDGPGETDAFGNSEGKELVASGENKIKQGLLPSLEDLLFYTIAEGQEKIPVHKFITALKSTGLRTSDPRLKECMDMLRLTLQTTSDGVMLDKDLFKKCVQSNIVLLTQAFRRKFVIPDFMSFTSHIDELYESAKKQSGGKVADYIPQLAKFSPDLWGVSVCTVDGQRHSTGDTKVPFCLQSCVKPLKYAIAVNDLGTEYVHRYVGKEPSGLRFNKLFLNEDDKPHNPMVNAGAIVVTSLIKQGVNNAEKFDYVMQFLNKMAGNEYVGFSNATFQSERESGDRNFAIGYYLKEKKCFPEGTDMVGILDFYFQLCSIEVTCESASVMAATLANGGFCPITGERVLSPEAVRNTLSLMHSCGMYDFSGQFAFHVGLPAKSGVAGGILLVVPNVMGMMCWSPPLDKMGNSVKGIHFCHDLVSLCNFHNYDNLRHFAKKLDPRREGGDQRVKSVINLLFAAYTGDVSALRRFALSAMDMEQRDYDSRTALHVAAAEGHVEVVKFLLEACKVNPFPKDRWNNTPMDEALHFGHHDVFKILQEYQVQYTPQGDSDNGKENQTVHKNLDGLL

SMILES	Potency	activity change, negative = inhibition
Cc1cc(S(=O)(=O)Nc2nc(CN3CCOCC3)nc3sc4c(c23)CCC4)cc(C)c1C	inconclusive [inhibitor, single point]	–
O=C(c1cnn(C(=O)c2cccc(S(=O)(=O)N3CCOCC3)c2)c1)c1ccccc1O	inconclusive [inhibitor, single point]	–
COc1cccc(-c2nc(-c3ccccn3)no2)c1OC	inconclusive [inhibitor, single point]	–
Oc1ccc(-c2n[nH]c(C(F)(F)F)c2-c2ccccc2)c(O)c1	inconclusive [inhibitor, single point]	–
N#Cc1ccc2c(c1)nnn2-c1ccccc1	–	inactive: 13.6%
CCOc1ccc2[nH]c(=S)sc2c1	inconclusive [inhibitor, partial curve]	–
COc1ccc(NC(C)=O)cc1S(=O)(=O)Nc1ccccc1C(=O)NCCc1ccccc1	–	inactive: 14.7%
O=C(Nc1nc(=O)n(C(=O)C2CC2)s1)c1ccccc1	–	inactive: 13.8%
O=C(NCCCCc1ccccc1)C1CC(c2cc(C(F)(F)F)cc(C(F)(F)F)c2)=NO1 (stereo unspecified)	–	inactive: -2.35%
COC(=O)c1cn(CCOc2ccccc2F)c2ccccc12	–	inactive: 0.864%
Cc1cccnc1NC(=O)Nc1ccccc1	inconclusive [inhibitor, single point]	–
Nc1cccnc1Sc1ccc([N+](=O)[O-])cn1	inconclusive [inhibitor, partial curve]	–
CC(C)C[C@@H](CNCC(=O)[C@H](Cc1ccccc1)NC(=O)c1[nH]cnc1C(=O)N[C@H](CN)CC(C)C)NC(=O)c1nc[nH]c1C(=O)N[C@@H](CC(=O)O)C(=O)O	active: 12.6 µM	–
O=[N+]([O-])c1ccc(C[n+]2cccc3ccc4cccnc4c32)cc1	inconclusive [inhibitor, single point]	–
N#Cc1ccccc1NC(=O)C(=O)NCC(c1cccnc1)N1CCN(c2ccccc2)CC1 (stereo unspecified)	–	inactive: 16.3%
CC1=NNC(=O)C1CC(=O)N/N=C/c1ccc(C)o1 (stereo unspecified)	inconclusive [inhibitor, single point]	–
COc1cc(-c2nnc(SCC(=O)NC(C)C)o2)cc(OC)c1OC	inconclusive [inhibitor, single point]	–
COc1cccc(/C=N/NC(=O)c2cnccn2)c1O	–	inactive: 16.7%
O=C(COC(=O)c1cccc(NS(=O)(=O)c2ccc(F)c(F)c2)c1)NC(=O)NC1CCCCC1	inconclusive [inhibitor, single point]	–
COc1ccc(/C=C2\CCCc3c2nc2ccc(C)cc2c3C(=O)O)cc1O	inconclusive [inhibitor, single point]	–
COc1ccc2c(CC(=O)OCC(=O)Nc3ccc(S(N)(=O)=O)cc3)coc2c1	–	inactive: 6.13%
Cc1nn(C)c(Nc2ccc(Br)cc2)c1Br	inconclusive [inhibitor, single point]	–
CC1(C)S[C@@H]2[C@H](NC(=O)Cc3ccccc3)C(=O)N2[C@@H]1C(=O)O	active: 12.6 µM	–

SMILES	Potency	activity change, negative = inhibition
Cc1cccc([N+](=O)[O-])c1C(=O)O	inconclusive [inhibitor, single point]	–
O=C(NCC1CCCO1)c1cc(-c2ccco2)nc2ccccc12 (stereo unspecified)	inconclusive [inhibitor, partial curve, poor fit]	–
Cc1cc(O)c(-c2cc(O)c(C)cc2O)cc1O	inconclusive [inhibitor, single point]	–
COc1cc(/C=C/C=C2/CC/C(=C/C=C/c3ccc(O)c(OC)c3)C2=O)ccc1O	inconclusive [inhibitor, partial curve]	–
CNc1cc(CSC)nc(SCc2ccc(Cl)c(Cl)c2)n1	–	inactive: 8.32%
Cc1ccccc1Oc1nc2c(c(=O)n(C)c(=O)n2C)n1Cc1ccc(Br)cc1	–	inactive: -9.45%
Cc1cc(NC(=O)CCCN2C(=O)c3cccc4cccc(c34)C2=O)no1	–	inactive: -6.54%
Cn1c(SCC(=O)Nc2cccc(S(=O)(=O)NC3=NCCCCC3)c2)nnc1-c1ccncc1	inconclusive [inhibitor, single point]	–
O=C(NCCc1cn[nH]c1)C1CCC(=O)N(CCc2cccc(F)c2)C1 (stereo unspecified)	inconclusive [inhibitor, single point]	–
Cc1onc(-c2c(Cl)cccc2Cl)c1C(=O)N[C@@H]1C(=O)N2[C@@H]1SC(C)(C)[C@@H]2C(=O)O	active: 10 µM	–
COc1ccc(/C=N\Nc2ncc(F)c(N3CCOCC3)n2)cc1OC	–	inactive: -26.6%
COCCCNC(=O)CSC1=Nc2ccccc2C2=NC(c3ccccc3)C(=O)N12 (stereo unspecified)	inconclusive [inhibitor, single point]	–
CCN1C(=O)[C@H]2[C@@H](c3ccc(-c4cccc(Cl)c4)c(OC)c3)N[C@@](Cc3ccccc3)(C(=O)OC)[C@H]2C1=O	–	inactive: -3.1%
COc1cc(C(=O)Oc2cccc(C)c2)cc(OC)c1OC	inconclusive [inhibitor, single point]	–
O=C(O)CCN1C(=O)/C(=C/c2ccc(-c3nc4ccccc4s3)o2)SC1=S	inconclusive [inhibitor, single point]	–
CC(C)(C)c1cc[n+](/C(C(=S)NC2CC2)=C(/[O-])c2ccc(Cl)s2)cc1	inconclusive [inhibitor, single point]	–
O=S(=O)(CC(CN1CCCC1)N1CCCC1)c1ccc2ccccc2c1 (stereo unspecified)	–	inactive: 22.7%
OC[C@@H]1CN(Cc2ccc3c(c2)OCO3)C[C@H](n2cnc3c(N4CCCC4)ncnc32)O1	–	inactive: 6.55%
O=C(Nc1ccc(F)cc1)Nc1nnc(Cc2ccccc2F)s1	inconclusive [inhibitor, single point]	–
COc1ccc(CNC(=O)C(=O)NCC2CCCO2)cc1 (stereo unspecified)	inconclusive [inhibitor, single point]	–
CC(=O)c1c(C)c[nH]c1C	inconclusive [inhibitor, single point]	–
COc1ccccc1CNc1nc(Nc2cccc(-c3cnco3)c2)c2sccc2n1	–	inactive: 4.38%
O=S(=O)(NNc1ccc(Cl)nn1)c1ccc(F)cc1	inconclusive [inhibitor, single point]	–
